Results as given in the supplement of paper PMC10126150.
Sequences with one replicate were seen in a single cluster, so their values are uncertain.

test system: ATP; assay: switch fluorescence ratio, 500 uM ATP over buffer (Cy3 cluster intensity, sum of 5 cycles each) (fold (ratio)); higher = stronger signal-on switching upon ATP binding; sequences stand for … in TCGTCGGCAGCGTCAGATGTGTATAAGAGACAGTTTTTTTTTTTTTTTTTTTTTTTTT…TC; settings: aptamer strand: ATP DNA aptamer (quencher-CACCTGGGGGAGTATTGCGGAGGAAGG + anchor), 100 nM annealed; ATP concentration: 500 uM; one replicate
Outline: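 Per cluster, summed Cy3 intensity from the target cycles was divided by that from the buffer cycles to give the fluorescence ratio, then averaged per switch-domain sequence. Clusters outside 100-1000 RFU were excluded. The Cy3-labelled switching-strand clusters, on a modified Illumina MiSeq flow-cell, were annealed to 100 nM quencher-labelled ATP aptamer and imaged in selection buffer, then after 15 min with 500 uM ATP at 22 °C, for five cycles with NaOH stripping and re-annealing between them.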
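Note: ATP exposure 15 min at 22 °C before imaging.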

Row | Sequence | switch fluorescence ratio
1 | AGGTCGGTCG | 0.984
2 | AGGTCTCCC | 0.984
3 | AGGTCTGGCC | 0.964
4 | AGGTGCACTC | 1.03
5 | AGGTGCTTTT | 0.997
6 | AGGTGGACTT | 1.04
7 | AGGTGGATCA | 0.987
8 | AGGTGGGTCG | 1.02
9 | AGGTGGGTTC | 0.985
10 | AGGTTACCTT | 1.04
11 | AGGTTATCCA | 0.987
12 | AGGTTGATGT | 0.973
13 | AGGTTGCTAG | 0.991
14 | AGGTTGGCTA | 0.933
15 | AGGTTTGGT | 0.965
16 | AGGTTTTCGG | 0.978
17 | AGTAAAATTG | 0.99
18 | AGTAAACAAA | 1.02
19 | AGTAAATTAA | 0.962
20 | AGTAAATTAG | 1.02
21 | AGTAACATAG | 1.05
22 | AGTAAGGCG | 0.955
23 | AGTAATCGGT | 0.964
24 | AGTAATCTA | 1.02
25 | AGTACCGATT | 1.01
26 | AGTACGCCGC | 1.18

Row | Sequence | switch fluorescence ratio
27 | AGTACGTCTT | 0.963
28 | AGTAGAAGGG | 1.06
29 | AGTAGATAAG | 1.01
30 | AGTAGCTACA | 1
31 | AGTAGGCCCA | 0.969
32 | AGTAGGCCCT | 0.99
33 | AGTAGGGGA | 1.13
34 | AGTAGGGGCA | 0.999
35 | AGTAGTACGA | 1.11
36 | AGTAGTGTAT | 0.999
37 | AGTATACGG | 1.07
38 | AGTATACTTG | 1.05
39 | AGTATATATA | 1.01
40 | AGTATCACGC | 1.03
41 | AGTATGTCAC | 0.984
42 | AGTATTAAGT | 0.971
43 | AGTATTCCCA | 0.99
44 | AGTCACGGCC | 1.03
45 | AGTCAGCAGA | 1.02
46 | AGTCAGGC | 0.976
47 | AGTCAGGCGC | 1.02
48 | AGTCATTCG | 1.03
49 | AGTCCAGGAT | 0.989
50 | AGTCCTAAGA | 0.986
51 | AGTCCTCCGG | 1.54
52 | AGTCGACTGG | 0.987

Row | Sequence | switch fluorescence ratio
53 | AGTCGGCCAT | 0.991
54 | AGTCGTATTG | 0.971
55 | AGTCGTGAGG | 1.01
56 | AGTCGTGCGT | 0.957
57 | AGTCTAGAGT | 1.03
58 | AGTCTCAAGA | 1.01
59 | AGTCTCAGAG | 0.988
60 | AGTCTCGATC | 0.994
61 | AGTCTGGTTT | 0.963
62 | AGTGAAGAGT | 0.977
63 | AGTGACCCGT | 1.03
64 | AGTGAGAATG | 1.05
65 | AGTGAGTCGC | 1.03
66 | AGTGATCGGG | 1.02
67 | AGTGATGATG | 0.986
68 | AGTGATGATT | 1
69 | AGTGATTCT | 1.04
70 | AGTGCAATCC | 2.2
71 | AGTGCACATG | 0.978
72 | AGTGCACGA | 1.01
73 | AGTGCATCCG | 1
74 | AGTGCGCTGT | 1.03
75 | AGTGCTGCCT | 1.04
76 | AGTGGAATAG | 1.03
77 | AGTGGAGCAT | 1.05
78 | AGTGGATATA | 1.01

Row | Sequence | switch fluorescence ratio
79 | AGTGGATCGC | 1.01
80 | AGTGGCAGCA | 0.948
81 | AGTGGCCATT | 0.947
82 | AGTGGCGCG | 0.929
83 | AGTGGCTTCT | 1.03
84 | AGTGGTCCAG | 1.02
85 | AGTGTATTAC | 0.996
86 | AGTGTCAATC | 1.04
87 | AGTGTCCGGA | 1.05
88 | AGTGTCGGTC | 1.01
89 | AGTGTCTAGG | 0.981
90 | AGTGTCTTA | 1.03
91 | AGTGTGACGC | 0.933
92 | AGTGTGAGCG | 1.02
93 | AGTGTTCGCA | 1
94 | AGTGTTTACC | 1.09
95 | AGTGTTTCGG | 0.947
96 | AGTTACCTAA | 1.05
97 | AGTTACGATG | 1.03
98 | AGTTAGACCC | 0.992
99 | AGTTAGAGTT | 0.992
100 | AGTTAGATGG | 1
101 | AGTTAGCTGG | 1.02
102 | AGTTATGTCC | 0.996
103 | AGTTATTAGA | 1.04
104 | AGTTCATAGT | 0.953

Row | Sequence | switch fluorescence ratio
105 | AGTTCCTCAA | 1.05
106 | AGTTCTATAG | 0.967
107 | AGTTGAAGGT | 0.98
108 | AGTTGAATAG | 1.03
109 | AGTTGAGAA | 1.03
110 | AGTTGAGTAT | 0.976
111 | AGTTGATTAT | 1.04
112 | AGTTGCAATC | 1.9
113 | AGTTGGCCGT | 0.984
114 | AGTTGGGAGT | 0.988
115 | AGTTGTAATT | 1.02
116 | AGTTGTCCGG | 0.983
117 | AGTTGTTATC | 0.96
118 | AGTTGTTTGC | 0.98
119 | AGTTTAATGA | 1.06
120 | AGTTTAGTGT | 0.987
121 | AGTTTATCTA | 1.01
122 | AGTTTCCACG | 0.966
123 | AGTTTGGATG | 0.958
124 | AGTTTTTAAC | 1.01
125 | ATAAAAAGG | 1.02
126 | ATAAAACCG | 0.98
127 | ATAAAACGGA | 0.956
128 | ATAAAAGCAG | 1.02
129 | ATAAAAGCT | 1.06
130 | ATAAAAGTTT | 0.991

Row | Sequence | switch fluorescence ratio
131 | ATAAAATCAA | 1
132 | ATAAACCTCA | 1.18
133 | ATAAAGAAT | 0.987
134 | ATAAAGTCGG | 1.02
135 | ATAAATCAGG | 1.01
136 | ATAAATGATC | 1.03
137 | ATAAATGGGA | 0.976
138 | ATAAATTTCC | 1.14
139 | ATAACAATGG | 1.05
140 | ATAACACTAG | 1.02
141 | ATAACAGTGG | 1.01
142 | ATAACCGTTA | 1.03
143 | ATAACCTATT | 1.02
144 | ATAACCTGAA | 1.44
145 | ATAACCTTGG | 1.02
146 | ATAACGCTCC | 1.17
147 | ATAACGGCTC | 1
148 | ATAACGTCGT | 1.03
149 | ATAACTGACG | 1.07
150 | ATAAGAAATG | 0.987
151 | ATAAGGAGCA | 1.03
152 | ATAAGGAT | 0.993
153 | ATAAGGCCGC | 1
154 | ATAAGGGACT | 1.03
155 | ATAATAAACA | 0.985
156 | ATAATATTAA | 0.986

Row | Sequence | switch fluorescence ratio
157 | ATAATCATGG | 1.03
158 | ATAATCGATG | 0.976
159 | ATAATCGCAA | 3.83
160 | ATAATCGGAT | 0.997
161 | ATAATGATAC | 1.06
162 | ATAATGGTAT | 0.999
163 | ATAATGGTGG | 0.983
164 | ATAATGTATT | 0.96
165 | ATAATTAG | 0.995
166 | ATAATTGACA | 1.08
167 | ATAATTGCAA | 0.994
168 | ATAATTTTG | 0.974
169 | ATACAAGATC | 1.02
170 | ATACACAGCC | 1.13
171 | ATACACGAAC | 1.49
172 | ATACAGACTG | 0.966
173 | ATACAGCGGC | 1.05
174 | ATACAGCTAA | 1.05
175 | ATACATGGTA | 0.979
176 | ATACATTGCA | 0.996
177 | ATACCAGCTG | 1.03
178 | ATACCCACTA | 1.39
179 | ATACCCGGCA | 1.04
180 | ATACCCTGAA | 0.98
181 | ATACCGAGAC | 1.16
182 | ATACCTATTC | 1.05

Row | Sequence | switch fluorescence ratio
183 | ATACGAAGTT | 0.99
184 | ATACGAGGGG | 0.979
185 | ATACGATTAT | 1.03
186 | ATACGCCTG | 1.04
187 | ATACGGCAGA | 1.03
188 | ATACGTAGGA | 0.997
189 | ATACTACTTA | 1.02
190 | ATACTAGT | 1.01
191 | ATACTCCCAT | 2.02
192 | ATACTCGACG | 1.07
193 | ATACTGACCG | 1.14
194 | ATACTGCAAC | 1.24
195 | ATACTTACTA | 1.19
196 | ATACTTGAT | 0.995
197 | ATACTTGCCA | 1.09
198 | ATACTTTTGT | 1.01
199 | ATAGAAGTGG | 1.09
200 | ATAGACGCGA | 1.12
201 | ATAGAGCTCA | 0.999
